In the supplement of paper PMC4723716 one finds viability index data, which are given here for 46 compounds.

Molecules are shown by their SMILES. ± gives the uncertainty stated by the source. In all, about 9,900 compounds were measured (“viability index relative to DMSO control”: median about 1, lowest 2% from about 0.85 on). The list shows a part of the results.

In the experiment the test system is Plasmodium falciparum NF54 stage V gametocytes. As to the kind of experiment: viability index relative to DMSO control (fraction); higher = less gametocyte killing. Particulars: 2.5 µM, library set: Broad Institute DOS, incubation time: 72 h. In a few lines: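 Gametocytes (P. falciparum NF54, stage V) were treated with compound at 2.5 µM for 72 hr at 37°C in low oxygen, in serum-free medium at 0.75% gametocytemia and 1.25% hematocrit. Counts of 20–70 µm2 red particles, taken from one field per well after MitoTracker Red CMXRos with saponin, were divided by the plate mean of solvent-only wells. This ratio is the viability index.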
As to `COc1ccc2c3c([C@@H](CO)N(C[C@]33CCN(CC3)C(=O)c3ccccc3)C(=O)c3ccccc3)n(C)c2c1`, the viability index came to 0.761 ± 0.011. `O=C(C1CCCC1)N1CC2(C1)[C@H](c1ccccc1)[C@@H](CO)N2Cc1ccc(Cl)cc1`: the viability index worked out at 1.05 ± 0.024. In the case of `O=C(Cc1cccnc1)N1CC2(C1)[C@@H](c1ccccc1)[C@H](CO)N2C(=O)C1CCOCC1` it was 1.12 ± 0.05.

`C[C@H](NC(=O)C[C@@H]1C=C[C@H](NS(=O)(=O)c2cccc(F)c2)[C@@H](CO)O1)c1ccccc1` showed a viability index of 1.13 ± 0.08. As to `Cc1noc(C)c1S(=O)(=O)Nc1ccc2c(c1)C(=O)N([C@H](C)CO)C[C@@H](C)[C@@H](CN(C)Cc1ccc(C(=O)O)cc1)OCCCC[C@H](C)O2`, the viability index came out at 1.125 ± 0.0076.

In turn, `C[C@@H]1CN([C@H](C)CO)C(=O)CCCn2nncc2CO[C@H]1CN(C)C(=O)Nc1ccnc(N2CCOCC2)c1` showed a viability index of 0.94 ± 0.061. Take `CCC(=O)N1[C@H](CO)[C@H](c2ccc(-c3cncnc3)cc2)[C@@H]1CN(C)C(C)=O`: the viability index was 0.994 ± 0.065.

In turn, `C[C@@H]1CN([C@@H](C)CO)C(=O)c2ccccc2-c2ccccc2CO[C@H]1CN(C)C(=O)NC1CCCCC1` registered a viability index of 0.9751 ± 0.0056. As for `CO[C@@H]1CN(C)C(=O)c2ccc(NC(=O)C3CC3)cc2OC[C@@H](C)N(C(C)=O)C[C@H]1C`, the figure is 1.06 ± 0.022; as for `CO[C@@H]1CC[C@@H]2CCOc3c(C#N)cccc3C(=O)N(C)C[C@@H](OC)[C@@H](C)C(=O)N(C)C[C@H]1O2`, 1.03 ± 0.013; as for `CCCNC(=O)N1C[C@@]2(C1)CN([C@H](CO)c1[nH]c3cc(OC)ccc3c21)C(=O)CN1CCOCC1`, 0.983 ± 0.057. In the case of `O=C(Nc1ccccc1F)N1CCCCN2[C@H](CO)[C@H](c3ccc(/C=C/c4ccccc4)cc3)[C@@H]2C1` it was 1.01 ± 0.021; in that of `COc1ccccc1C#Cc1ccc([C@@H]2[C@@H](CO)N3CCCCN(C(=O)C4CCC4)C[C@@H]23)cc1`, 1 ± 0.076; in that of `O=C(c1cccnc1)N1CC2(C1)[C@H](c1ccccc1)[C@H](CO)N2C(=O)CC1CC1`, 1.016 ± 0.0087. Turning to `COc1ccc2c3c([C@@H](CO)N(C[C@]33CN(Cc4ccncc4)C3)C(=O)CC3CC3)n(C)c2c1`, the viability index was 1.09 ± 0.0047. Turning to `O=C(N[C@H]1CC[C@H](CCNS(=O)(=O)c2ccc(F)cc2)O[C@H]1CO)C1CCC1`, the viability index was 1.09 ± 0.051. In turn, `C[C@H]1CN([C@@H](C)CO)C(=O)c2c(c3ccccc3n2C)-c2ccccc2CO[C@H]1CN(C)C(=O)[C@H](Cc1ccccc1)N(C)C` returned a viability index of 1.07 ± 0.059. As for `O=C(CC(F)(F)F)N1C[C@H]2[C@@H](c3ccccc31)[C@H](CO)N2C(=O)c1ccncc1`, the figure is 0.981 ± 0.099; as for `Cc1nc(N2[C@@H](C#N)[C@@H](c3ccccc3)[C@@H]2CO)sc1C`, 1.04 ± 0.11. As for `C[C@@H]1CN([C@H](C)CO)C(=O)c2cccc(NC(=O)c3ccno3)c2O[C@H]1CN(C)S(=O)(=O)c1cccs1`, the figure is 0.948 ± 0.1. In the case of `CCOC(=O)c1cc2c(c(-c3cccc(Br)c3)n1)[C@H](CCO)N(C(=O)NC(C)C)C2` it was 1.07 ± 0.12; in that of `N#C[C@@H]1N[C@@H](CO)[C@H]1c1ccc(C#CC2CCCCC2)cc1`, 1.03 ± 0.031. Turning to `C/C=C/c1ccc([C@H]2[C@H]3CN(S(=O)(=O)c4ccc(OC)cc4)CCCCN3[C@H]2CO)cc1`, the viability index stood at 1.01 ± 0.044. As for `C(=C\c1ccc([C@@H]2[C@H]3CNC[C@@H]2N3Cc2nccs2)cc1)/c1ccccc1`, the figure is 1.1 ± 0.02; as for `COCC(=O)N1CC[C@@]2(CC1)CN([C@@H](CO)c1[nH]c3cc(OC)ccc3c21)S(C)(=O)=O`, 1.09 ± 0.06. `CCCNC(=O)N1CC[C@@]2(CC1)CN(Cc1ccccn1)[C@@H](CO)c1c2c2ccc(OC)cc2n1C` yielded a viability index of 1.02 ± 0.064. In the case of `CO[C@H]1CC[C@H]2CCOc3c(C#N)cccc3C(=O)N(C)C[C@@H](OC)[C@@H](C)C(=O)N(C)C[C@H]1O2`, the viability index stood at 1.04 ± 0.058. With `COc1ccc(-c2ccc([C@@H]3[C@@H](C#N)N(C(=O)NC(C)C)[C@H]3CO)cc2)cc1`, the viability index was 1.09 ± 0.015.

As to `CO[C@H]1CN(C)C(=O)c2ccc(NC(=O)c3ccccc3F)cc2OC[C@@H](C)N(C)C[C@@H]1C`, the viability index was found to be 1.01 ± 0.063.

`O=C(C[C@@H]1CC[C@@H](NC(=O)c2cccnc2)[C@H](CO)O1)NCc1ccc(Cl)c(Cl)c1` came in with a viability index of 0.961 ± 0.091.

In turn, `COc1ccc2c3c([nH]c2c1)[C@@H](CO)N(C[C@]31CN(CC2CCOCC2)C1)C(=O)Nc1c(C)noc1C` registered a viability index of 1.02 ± 0.034. In the case of `CN(C)C(=O)c1ccc(-c2ccc([C@@H]3[C@H](C#N)N(C(=O)C4CC4)[C@H]3CO)cc2)cc1` it was 1.11 ± 0.018; in that of `COc1ccc2c3c([nH]c2c1)[C@H](CO)N(Cc1ccc2OCOc2c1)C[C@]31CCN(CC1)C(=O)Nc1c(C)noc1C`, 1.09 ± 0.09. In the case of `CC(=O)N1[C@H](CO)[C@@H](c2ccccc2)[C@H]1CNC(=O)CN1CCOCC1` it was 0.975 ± 0.047. On to `COc1ccccc1CNC(=O)C[C@@H]1CC[C@H]2[C@@H](COC[C@H](O)CN2Cc2ccc3c(c2)OCO3)O1`, for which the viability index turned out to be 1.06 ± 0.092. On to `CC(C)(O)C#Cc1ccc([C@H]2[C@H](CO)N3CCCCN(S(C)(=O)=O)C[C@@H]23)cc1`, for which the viability index stood at 1.01 ± 0.016.

For `COc1cccc(-c2ccc([C@H]3[C@H]4CN(C(=O)c5cccnc5)CC(=O)N4[C@H]3CO)cc2)c1`, the viability index was 1.04 ± 0.02. The compound `CN(C)C(=O)c1cccc(-c2ccc([C@H]3[C@H]4CN(CC5CCOCC5)CCCCN4[C@H]3CO)cc2)c1` displayed a viability index of 1.02 ± 0.047. In the case of `N#C[C@@H]1[C@@H](c2ccc(/C=C/c3ccccc3)cc2)[C@@H](CO)N1C(=O)C1CCCC1` it was 1.025 ± 0.0016. In the case of `O=C(C[C@H]1C=C[C@H](NC(=O)Nc2cccc(F)c2)[C@H](CO)O1)NCC1CCCCC1` it was 0.95 ± 0.062; in that of `COc1ccc2c3c([nH]c2c1)[C@@H](CO)N(C[C@]31CCN(CC1)C(=O)Nc1ccc(F)cc1F)C(C)=O`, 1.07 ± 0.056; in that of `COc1cccc(C#Cc2ccc3c(c2)O[C@@H](CN(C)C(=O)CN2CCOCC2)[C@@H](C)CN([C@H](C)CO)S3(=O)=O)c1`, 0.966 ± 0.13. On to `COc1ccc2c3c([C@H](CO)N(C[C@]33CCN(Cc4cccnc4)CC3)S(=O)(=O)c3ccc(C)cc3)n(C)c2c1`, for which the viability index came out at 1.054 ± 0.0079. As for `NCC[C@H]1CC[C@@H](NC(=O)NC2CCCCC2)[C@@H](CO)O1`, the figure is 0.988 ± 0.15; as for `CO[C@@H](CN(C)S(=O)(=O)c1cccc(Cl)c1)[C@@H](C)CN(C(=O)Nc1ccccc1F)[C@@H](C)CO`, 0.987 ± 0.046; as for `CN1C[C@H](O)COC[C@H]2O[C@@H](CC(=O)NC3CCCC3)CC[C@@H]21`, 1.12 ± 0.06.
